Measurements as given in publication PMC2699514 (Nucleic Acids Research, 2009).

B1: chimera PARP2-1 ([…] of PARP2 fused to […] of PARP1) (enzyme, human)
chain: MAARRRRSTGGGRARALNESKRVNNGNTAPEDSSPAKKTRRCQRQESKKMPVAGGKANKDRTEDKQDESVKALLLKGKAPVDPDSGLEH[omitted - about 450 residues]
B2: PARP1 DNA-binding domain (DBD), fragment […], HA-tagged (domain or fragment)
chain: not shown
B3: PARP1 […] (CAT domain of PARP1 without the WGR) (domain or fragment)
chain: not shown

Assays:
[1] = biological target: B2; experiment: co-IP
[2] = biological target: PARP1 373–1014 (PARP1 DBD deletion mutant) (human, UniProt P09874 373-1014); experiment: co-IP

| Binder | binding result [1] | binding result [2] |
| --- | --- | --- |
| B1 | binds | – |
| B2 | – | binds |
| B3 | binds | – |
